Values joined by “and” are separate entries in the source; they are usually repeats but may differ in a detail not shown here. Identical values can stand only once. Screen size: about 350,000 compounds; about 31,000 (8.9%) were called active. This list was built around the results that the source calls inconclusive (neither active nor inactive); the mix of calls is not that of the screen. Calls come from the whole dose curve; as a rule, active = well fitted inhibition curve with a large enough effect; inconclusive = small, poorly fitted or top-dose-only effect; inactive = no such curve, though single readings can be large or run the other way. Potencies of inconclusive entries are doubtful fits and often do not repeat.
The molecules below were run against Histone-lysine N-methyltransferase EHMT2 (Homo sapiens) (UniProt Q96KQ7) (assay: qHTS Assay for Inhibitors of Histone Lysine Methyltransferase G9a). Conditions: G9a H3K9 monomethylation, AlphaScreen, 2 h; activity, negative = inhibition: at 59 µM (top of the series) unless noted.
Sequence of UniProt Q96KQ7 (Q96KQ7 whole entry, looked up): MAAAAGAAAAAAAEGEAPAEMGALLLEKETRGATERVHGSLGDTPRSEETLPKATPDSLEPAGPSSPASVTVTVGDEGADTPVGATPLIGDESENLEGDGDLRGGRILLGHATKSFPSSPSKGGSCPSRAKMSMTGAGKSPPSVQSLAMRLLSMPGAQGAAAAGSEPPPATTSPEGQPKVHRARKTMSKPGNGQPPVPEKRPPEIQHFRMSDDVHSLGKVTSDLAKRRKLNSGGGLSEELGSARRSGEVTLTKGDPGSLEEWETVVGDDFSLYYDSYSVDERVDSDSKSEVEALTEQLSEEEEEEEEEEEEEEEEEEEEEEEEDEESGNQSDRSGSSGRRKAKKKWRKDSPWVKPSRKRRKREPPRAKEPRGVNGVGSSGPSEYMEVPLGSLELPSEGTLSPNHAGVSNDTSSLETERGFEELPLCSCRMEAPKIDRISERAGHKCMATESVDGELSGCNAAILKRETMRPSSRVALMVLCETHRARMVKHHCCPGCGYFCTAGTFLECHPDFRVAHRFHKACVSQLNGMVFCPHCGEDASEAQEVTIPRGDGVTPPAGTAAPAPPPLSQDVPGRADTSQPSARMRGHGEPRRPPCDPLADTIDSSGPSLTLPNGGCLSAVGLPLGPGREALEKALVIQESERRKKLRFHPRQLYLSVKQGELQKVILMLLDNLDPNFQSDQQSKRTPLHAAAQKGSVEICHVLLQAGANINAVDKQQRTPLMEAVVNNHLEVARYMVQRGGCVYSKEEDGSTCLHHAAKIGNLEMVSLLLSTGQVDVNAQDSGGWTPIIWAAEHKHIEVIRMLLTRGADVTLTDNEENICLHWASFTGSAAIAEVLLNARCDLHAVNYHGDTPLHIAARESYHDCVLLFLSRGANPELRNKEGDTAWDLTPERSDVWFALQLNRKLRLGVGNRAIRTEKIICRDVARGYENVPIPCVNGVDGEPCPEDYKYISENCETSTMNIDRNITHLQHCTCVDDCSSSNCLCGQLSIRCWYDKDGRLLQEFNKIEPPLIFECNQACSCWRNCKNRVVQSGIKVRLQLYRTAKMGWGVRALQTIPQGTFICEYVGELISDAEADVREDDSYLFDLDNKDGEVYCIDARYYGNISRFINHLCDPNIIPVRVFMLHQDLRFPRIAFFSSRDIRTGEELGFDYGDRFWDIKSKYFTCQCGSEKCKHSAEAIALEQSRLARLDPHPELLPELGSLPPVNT
How it was run: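 Using a bead-based AlphaScreen, monomethylated H3K9 product from 2 h room-temperature reactions (G9a 20 nM, peptide 500 nM, SAM 20 uM) was detected with 0.5 ug/mL rabbit anti-H3K9me1 antibody.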
In the case of `CC(=O)Nc1nonc1-c1nnc(SCC(=O)Nc2ccc(F)cc2F)n1-c1ccccc1`, the “activity, negative = inhibition” value is reported as inactive: -2.22%.
`Cc1cc(Cn2cnc3c2C[C@@H](C(=O)O)N(C(=O)C(c2ccccc2)c2ccccc2)C3)ccc1N` was tested, and the Potency was inconclusive: 26.7 µM [inhibitor, single point].
With `O=C(CNS(=O)(=O)c1cccs1)NCCc1ccc(Cl)cc1` the “activity, negative = inhibition” value was inactive: -9.19% [at 102 µM].
In the case of `Cc1ccc(Cn2c(CNS(=O)(=O)c3c(C)cc(C)cc3C)nc3cccnc32)cc1`, the Potency is reported as inconclusive: 28.2 µM [inhibitor, single point].
For `COc1ccc(OC)c(NC(=O)CCNS(=O)(=O)c2ccc3[nH]c(=O)oc3c2)c1`, the “activity, negative = inhibition” value was inactive: -4.99% [at 102 µM].
`CCCCC(=O)NC(c1cccs1)c1cc(Cl)c2cccnc2c1O` (centres undefined) was tested, and the Potency was inconclusive: 0.398 µM [inhibitor, partial curve, poor fit].
For `Cc1ccc(C(=O)CSC2=C(C#N)C(c3ccco3)C3=C(CC(C)(C)CC3=O)N2)cc1` (centres undefined), the Potency was active: 39.8 µM.
`CCOC(=O)N1CCN(C(=O)C(=O)NNC(=O)COc2ccc(Cl)c(C)c2)CC1` was tested, and the “activity, negative = inhibition” value was inactive: 0.252% [at 102 µM].
`Cc1cccc(OCCSc2nc3ccccc3n2CC(=O)N2CCCCC2)c1C` was tested, and the Potency was active: 12.6 µM.
In the case of `COC(=O)c1c(NC(=O)CN2C(=O)C(=O)N(CC(C)C)C2=O)sc2c1CCCCC2`, the “activity, negative = inhibition” value is reported as inactive: 4.6%.
With `O=C(Nn1cnnc1)c1csc2ccccc12` the Potency was inconclusive: 1.58 µM [inhibitor, partial curve, poor fit].
With `CC(=O)/C=C1/C(=O)Nc2ccccc21` the Potency was active: 11.2 µM.
With `Cc1ccc(-c2n[nH]c(=S)n2/N=C/c2ccc(C(=O)O)cc2)cc1` the Potency was active: 3.16 µM.
`CCN(Cc1ccccc1)Cc1c(O)ccc2c(=O)c(-c3ccccc3OC)c(C(F)(F)F)oc12` was tested, and the Potency was inconclusive: 3.16 µM [inhibitor, partial curve, poor fit].
For `CCOCCOC(=O)C1=C(C)N(C)C(=O)NC1c1cc(Cl)c(O)c(OCC)c1` (centres undefined), the Potency was inconclusive: 5.01 µM [inhibitor, full curve, poor fit].
With `CCc1nnc(NC(=O)c2cc(S(=O)(=O)N3CCCCC3)ccc2C)s1` the “activity, negative = inhibition” value was inactive: -44.8%.
`O=S(=O)(Nc1cc(Cl)ccc1-n1cncn1)c1ccccc1Cl` was tested, and the Potency was inconclusive: 5.62 µM [inhibitor, full curve, poor fit].
For `CC(=O)c1cccc(NC(=O)CCNC(=O)c2cccc(C)c2)c1`, the “activity, negative = inhibition” value was inactive: -3.5%.
`Cc1cccc(OCC(=O)N2CCC(N3CCOCC3)CC2)c1` was tested, and the Potency was inconclusive: 2.82 µM [inhibitor, partial curve, poor fit].
In the case of `Cc1cc(=O)[nH]c(/N=C(\N)Nc2cccc3ccccc23)n1`, the Potency is reported as active: 79.4 µM.
With `Cc1ccccc1NS(=O)(=O)c1ccc(C(=O)NCC(c2ccco2)N2CCCCC2)cc1` (centres undefined) the “activity, negative = inhibition” value was inactive: -25.2% [at 102 µM].
For `COC(=O)c1ccc(CNC(=O)c2ccc3c(c2)S(=O)(=O)N=C2CCCCCN23)cc1`, the Potency was inconclusive: 28.2 µM [inhibitor, partial curve, poor fit].
In the case of `CC1(C)C[C@@H]1C(=O)N/C(=C\CCCCSC[C@H](N)C(=O)O)C(=O)O`, the activity, negative = inhibition is reported as inactive: 0.605% [at 12.7 µM] and inactive: -2.74% [at 12.7 µM].
With `Cc1ccc2oc(-c3ccco3)nc2c1` the “activity, negative = inhibition” value was inactive: -19.9%.
For `Cc1cccc(S(=O)(=O)Nc2cccc(-c3cn4ccsc4n3)c2)c1`, the Potency was inconclusive: 50.1 µM [inhibitor, partial curve, poor fit].
`CCCCOc1ccc(C2=NC(c3ccncc3)=Nc3ccc(Br)cc3N2)cc1` was tested, and the Potency was inconclusive: 0.891 µM [inhibitor, full curve, poor fit].
`C=CCn1c(O)c(C2=c3ccccc3=NC2=O)s/c1=N/c1nccs1` was tested, and the Potency was inconclusive: 89.1 µM [inhibitor, single point].
In the case of `O=C(CSc1nnc(-c2cccnc2)n1-c1ccccc1)NCc1ccc2c(c1)OCO2`, the Potency is reported as inconclusive: 56.2 µM [inhibitor, partial curve].
In the case of `Nc1nc(SCC(=O)c2ccc(Oc3ccccc3)cc2)n[nH]1`, the activity, negative = inhibition is reported as inconclusive: -142% [inhibitor].
For `CC1(C)Cc2cccc(OCC(=O)Nc3cc(C(F)(F)F)ccc3N3CCOCC3)c2O1`, the Potency was inconclusive: 0.112 µM [inhibitor, full curve, poor fit].
`CC(OC(=O)c1ccc(-c2ccc([N+](=O)[O-])cc2)o1)C(=O)NC(N)=O` (centres undefined) was tested, and the activity, negative = inhibition was inconclusive: -67.4% [inhibitor].
`COc1cc(NC(c2ccccc2)c2ccccc2)cc(OC)c1OC` was tested, and the Potency was active: 39.8 µM.
In the case of `C=CCN(C(=O)CNS(=O)(=O)c1ccccc1)C(C(=O)NCCOC)c1ccncc1` (centres undefined), the Potency is reported as inconclusive: 25.1 µM [inhibitor, partial curve].
For `CCOCCCNC(=O)/C(C#N)=C/c1ccc([N+](=O)[O-])o1`, the Potency was inconclusive: 50.1 µM [inhibitor, single point].
With `Cc1ccc(-c2nc3ccc(Cl)cn3c2Nc2ccc3c(c2)OCCO3)o1` the Potency was inconclusive: 8.91 µM [inhibitor, partial curve, poor fit].
With `CCCCc1cc(=O)oc2cc(OC3CCCCC3=O)ccc12` (centres undefined) the Potency was inconclusive: 0.398 µM [inhibitor, partial curve, poor fit].
`CCCC(=O)N(CC(=O)Nc1sc(C)c(C)c1C(N)=O)Cc1ccccc1` was tested, and the “activity, negative = inhibition” value was inactive: 15.7% [at 102 µM].
With `CCC1(c2ccccc2)NC(=S)N(c2ccc(C)cc2)N1` (centres undefined) the Potency was inconclusive: 12.6 µM [inhibitor, partial curve, poor fit].
`CC(Sc1ccc2ccccc2n1)C(=O)O` (centres undefined) was tested, and the Potency was active: 50.1 µM.
For `Cc1ccc(Nc2nnns2)cc1C`, the Potency was inconclusive: 3.55 µM [inhibitor, single point].
With `CN(Cc1ccccc1)C(=O)C1CCN(S(=O)(=O)c2cc([N+](=O)[O-])ccc2Cl)CC1` the Potency was inconclusive: 79.4 µM [inhibitor, single point].
In the case of `CN(C(=O)CSc1nnc(Nc2ccccc2)s1)c1c(N)n(Cc2ccccc2)c(=O)[nH]c1=O`, the Potency is reported as inconclusive: 1.78 µM [inhibitor, partial curve, poor fit].
With `O=C(c1ccc(-c2ccccc2)cc1)N1CCN(Cc2ccccn2)CC1` the Potency was active: 39.8 µM.
With `COc1ccc(N2CCN(C(CNC(=O)CC(C)C)c3ccc4c(c3)OCO4)CC2)cc1` (centres undefined) the Potency was active: 11.2 µM.

From PubChem BioAssay AID504332 (National Center for Advancing Translational Sciences (NCATS), 2011)
% is set by controls: 0 for no effect and ±100 for the full control effect; potency is the fitted concentration of half-maximal effect; tags give direction and shape of the fitted curve.
Note: nearly all actives have a fitted effect of over 75% in size.
